From PubChem BioAssay AID1508624 (National Center for Advancing Translational Sciences (NCATS), 2021)
Screen size: about 48,000 compounds; about 120 (0.25%) were called active. Roughly 4% stayed inconclusive and do not appear here. Calls come from the whole dose curve; as a rule, active = well fitted activation curve with a large enough effect; inconclusive = small, poorly fitted or top-dose-only effect, or another doubt; inactive = no such curve, though single readings can be large or run the other way. This is one part of the list.

Assay: Primary qHTS for Identification of Small Molecule Activators of Huntingtin-Antisense Promoter Activity; note: nearly all actives have a fitted effect of over 55% in size
Conditions: HEK293 HTT-AS promoter firefly luciferase reporter, 24 h; series mostly up to 57.5 µM; activity change, positive = activation: at the top concentration
How it was run: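 Firefly luciferase readout (Dual-Glo, 10 min RT) after 24 h, 37 °C compound exposure (final up to 57.5 uM) of HEK293 reporter cells cultured 24 h beforehand; PTC124 at 50 uM final as control inhibitor; activity scaled vehicle 0%, zero RLU -100%.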

Activity change, positive = activation, inactive:
CCCN1C(=O)c2[nH]nc(-c3ccccc3O)c2C1c1ccc(OCc2ccccc2)c(OCC)c1 (stereo unspecified) -24.1%
COc1ccc(C)c2sc(N(Cc3cccnc3)C(C)=O)nc12 -16.1%
Cc1ccc(Cl)cc1NC(=O)CN1C(=O)c2cccc3cccc1c23 -22.3%
COc1ccccc1OCCn1c(NC(=O)c2ccc(Cl)cc2)nc2ccccc21 19.1%
COc1ccc(-c2nc3ccccc3s2)cc1NC(=O)COc1ccccc1C -0.0885%
O=C(Nc1c(C(=O)N2CCN(c3ccc(F)cc3)CC2)oc2ccccc12)c1c(F)cccc1F -31.9%
Cc1nnc(NC(=O)CSc2nc3c([nH]c4ccccc43)c(=O)n2-c2ccccc2)s1 -14.9%
CC(O)CN(CCN(CC(C)O)CC(C)O)CC(C)O (stereo unspecified) -0.607%
COc1ccc(C2CC(=O)c3cc(-c4nc(-c5cccc([N+](=O)[O-])c5)cs4)c(=O)n(-c4ccc(C)c(C)c4)c3C2)cc1 (stereo unspecified) -6.17%
CCC(Sc1nc2ccccc2c2nc(CCn3cncc3C)nn12)C(=O)Nc1cccc(OC)c1 (stereo unspecified) -8.67%
CC(C)Oc1ccc(C(=O)Nc2ccc3c(c2)CCCN3C(=O)c2cccs2)cc1 -45.4%
Cc1sccc1Br -6.16%
CCC1CCCCN1CCCNC(=O)CN1C(=O)c2cccnc2Oc2ccc(Cl)cc21 (stereo unspecified) -6.92%
COc1ccc(Cn2c(CNC(=O)c3ccc(N(C)C)cc3)nc3cccnc32)cc1 -18.9%
O=C(Cn1cc(SCc2ccc(C(F)(F)F)cc2)c2ccccc21)N1CCCCCC1 -9.21%
COc1ccc(NC(=O)CSc2nnc(-c3ccc(OC)cc3)s2)cc1 -45.3%
COc1cccc(C(c2sc3nc(-c4ccco4)nn3c2O)N2CCOCC2)c1 (stereo unspecified) -6.64%
Cc1ccc(Nc2nc3ccc(C)cc3nc2-n2nc(C)cc2C)c(C)c1 0.437%
CC(C)C(=O)Nc1nnc(S(=O)(=O)N2CCCCCC2)s1 -6.43%
NS(=O)(=O)c1cc(C2(O)NC(=O)c3ccccc32)ccc1Cl (stereo unspecified) 0.733%
O=C(C1COc2ccccc2O1)N1CCN(c2nc3c(F)cccc3s2)CC1 (stereo unspecified) 6.16%
COc1ccc(N(CC(=O)NCc2ccccc2Cl)S(=O)(=O)c2c(C)[nH]c(=O)[nH]c2=O)cc1 7.59% [at 11.5 µM, percent change from vehicle, -100% = no light]
COCCNC(=O)C1CCC(CNS(=O)(=O)c2ccc3c(c2)CC(C)N3C(C)=O)CC1 (stereo unspecified) -20.8%
COc1cc(C(CC(=O)Nc2ccc(Br)cn2)N2Cc3ccccc3C2=O)cc(OC)c1OC (stereo unspecified) -22.9%
Cc1c(C(=O)Nc2cccc(F)c2)oc2c1-c1nn(Cc3c(F)cccc3Cl)cc1CC2 -14.1%
CN(C)c1ccc(CNC(=O)CN2C(=O)c3cccnc3Oc3ccc(Cl)cc32)cc1 -1.26%
